Data published in PubChem BioAssay (NCI).
More than one record can exist for a structure, and the calls need not agree.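 Single-concentration screen, 48 h exposure, 96-well plates. Endpoint: percent growth. Below 10 = active.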 Not every entry of the source has a single result; some have several. They are shown here; other results are not. The source may hold further records. For some assays here: The screen tested this drug many times, at the concentration stated with the values; each value is one run. Brackets with × say how often a value occurs here. Entries with a single value are a further part of the results. Activity calls are given as the source filed them.

Columns and labels:
[1] = test system: SK-MEL-5 melanoma; assay: NCI-60 one-dose screen, 48 h (100 = growth as untreated, 0 = no growth, -100 = all killed)
[2] = test system: UACC-62 melanoma; assay: as above; details: 0.25 µM

SMILES: COc1cccc2c1C(=O)c1c(O)c3c(c(O)c1C2=O)C[C@@](O)(C(=O)CO)C[C@@H]3OC1CC(N)C(O)C(C)O1 (stereo partly drawn)
- growth ([1]; 0.25 µM, runs of 2019): inactive: 12.7 (2×), 25.3, 13.4, 44.6, 32.6 (2×), 38.4 (2×), 44.2, 37.2, 44.7, 50.2, 12.8, 15.5, 23, 13.7, 25.8, 20.8, 22.9, 28.7, 15 (2×), 38.6, 26, 29.6, 41.5, 32.8, 33, 23.2, 22 (2×), 20.2, 26.9, 27.4, 38.2, 35.6, 29.5, 32.7% and active: 8.26, 7.77, 5.01, 8.12, 7.91%
- growth ([1]; 0.25 µM, runs of 2020): inactive: 19.8, 45.4, 30.8, 29.2, 50, 43.2, 32.7, 35.7, 20, 19.6, 21, 34.1, 37.1, 48.4, 64.5, 38.5, 47.2, 60.4, 50.6, 43.6, 51.2, 54, 56.9, 63.1, 63.8% and active: 4.55%
- growth ([1]; 0.25 µM, runs of 2021): inactive: 30.3, 43.8, 30, 40.1, 27.7, 35.5, 38 (2×), 34.9, 27.8, 29.3, 33.4, 25.2, 38.6, 19.8 (2×), 24.6, 15.2, 22.5, 15.5, 33.6 (2×), 28.2, 47.6, 52.5, 38.1, 21, 28, 53.6, 45.7, 37.5, 10, 11.2, 16.8, 30.8, 34.1, 29.6, 17.2, 26.8, 43.2, 59.4, 61.3, 47.1, 31.1, 52.7, 36.4, 16, 26, 10.5, 30.1, 22.6% and active: -2.26%, -1.16%
- growth ([1]; 0.25 µM, runs of 2022): active: -90.8, -85.8, -92.7, -27.8, 3.27, -8.22, 2.02% and inactive: 27.1, 28.8, 14.2, 10.4, 29.6, 29.5, 41.1, 60.2, 39.7, 15.9, 49.2, 58.4, 16.9, 44.2, 50.3, 81.7, 33.3, 32.4, 25.7, 25.8, 38%
- growth ([1]; 25 µM, runs of 1991): inactive: 13.9% and active: -97, -94.9, -95.9, -98.8 (2×), -98.5, -100 (2×), -97.1, -95.3, -93.3, -99.3, -99.5, -91%
- growth ([1]; 25 µM, runs of 1992): active: -96.6, -61.7, -66.8, -98.7 (3×), -98.3, -100 (25×), -99.2 (2×), -99.6 (5×), -63.1, -33.6, -82.6 (2×), -98 (3×), -99.7 (4×), -97.7 (2×), -99.1, -53.9, -54.6, -25.8, -58.5, -87.4, -73.6, -75.7, -93.8, -96.7, -93.3 (2×), -96.2, -99.8 (5×), -83.1, -85.1, -71.7, -62.1, -97 (3×), -99, -96.5, -98.9 (2×), -98.2 (2×), -73.4, -54.8, -61.1, -93.6, -99.5 (3×), -97.4, -98.5, -84.3, -42.8, -51.4, -33.7, -93.7, -81.7, -94.5, -96.3 (2×), -55.3, -66.7, -85, -96.1, -94.1, -41.6, -92.4, -88.5, -27 (2×), -89.8, -96, -82.9, -43.4, -64.2, -96.8, -30, -97.1% and inactive: 20.5%
- growth ([1]; 25 µM, runs of 1993): active: -98.2 (2×), -100 (9×), -38.4, -86.5, -98.4, -88.7 (2×), -76.8, -99.1, -99.7, -89.5 (2×), -86.2, -95.8, -68.6, -98, -96.4, -98.8 (2×), -58.5, -84.4 (2×), -90.2, -89.1, -51.1, -99.8, -39.2, -95.6, -98.9 (2×), -95.7, -98.6, -72.1, -90, -94.1, -84.3, -99.6, -99.2, 0.518%
- growth ([1]; 25 µM, runs of 1994): active: -88.3, -100 (9×), -98.8, -99.7, -96.7 (2×), -98.4 (2×), -96.1, -90, -92.8, -97.1, -29.3, -99.6, -94.3, -95.9, -86.3, -97.7, -92.7, -93.8, -98, -84.5, -95.5, -76.4% and inactive: 75.6%
- growth ([1]; 25 µM, runs of 1995): active: -87.6, -100 (6×), -80.1, -95.9, -81.3, -91.1 (2×), -94.2, -89.4 (2×), -88.2, -49.9, -48.7, -87.7, -95.4, -96.7, -60.8, -95.1, -98.3, -86.8, -58.8, -54.8, -44.6, -60.4, -25.5, -37.1, -82.1, -38.1, -84.9, -90.6, -88.7, 5.86, -83.4%
- growth ([1]; 25 µM, runs of 1996): active: -62.6, -7.84, -100 (8×), -84.9, -63.2, -97.7 (2×), -54.8 (2×), -92.9, -94.7, -66.1, -97.9, -48.6, -93.3, -91.8, -93.2, -85.4, -95.1, 9.61, -79.4, -90, -84 (2×), -77.8, -69, -98.5, -88.9, -23.6, -97, -99.5, -96.5, -54.1, -58.3, -85, -86.9, -68.2, -5.81, -67.1, -81.4, -62.3, -73.2, 0.839, -58, -83.8, -91.7, -2.8, -69.6% and inactive: 104%, 89%
- growth ([1]; 25 µM, runs of 1997): active: -91.6, -63.6, -76.3, -6.1, -69, -9.8, -92.1, -77.8, -98.5, -100 (6×), -98.9, -98.2, -98.7, -78.6 (2×), -82.2, -67.2, -77.9, -52.7, -99.3 (2×), -90.7, 1.49, -89.8, -96.7, -99.4, -88, -93.8, -90.6, -65.2, -60.1, -51.9, 8.81%
- growth ([1]; 25 µM, runs of 1998): active: -96.5, -100 (5×), -99.1, -97.3, -89.4, -63.3, -92.5, -63.9, -77.3, -98.1 (2×), -90.4, -94.2, -91.4, -89.5, -74.2, -85.6, -98.8, -93.9, -76, -65.9%
- growth ([1]; 25 µM, runs of 1999): active: -70.7, -62.2, -40.2, -93.5 (2×), -86.8, -100, -91.9, -41.9, -99.2, -69.6, -98.3, -36.9, -74.9, -77.2, -81.5, -57.8, -19.9%
- growth ([1]; 25 µM, runs of 2000): active: -100% (2×), -28.7%, -93.5%
- growth ([2]; runs of 2006): inactive: 27.9%
- growth ([2]; runs of 2007): inactive: 18.8, 38.7, 36.9, 26.8, 30.9, 29.1 (2×), 28.9, 34, 25, 31.7, 39.9, 34.8, 52.4, 25.7, 42.5, 13.6, 22.3, 30.4, 43.4, 26.1, 23.1 (2×), 62.2, 47.4, 35.5, 32.4, 35.1, 34.3, 19.3, 37.3, 43.2, 28.6, 25.6, 15.9, 43.6, 31.6, 35.6, 40.5, 41.7, 30.8% and active: -5.99%
- growth ([2]; runs of 2008): inactive: 42.7, 31.5, 25.2, 27.7, 31.9, 27.2, 29.2, 22.3, 31.6, 37.3, 37.2, 16.1, 26.9, 20.8, 88.1, 31.3, 11.6, 20.7, 20.5, 28.6, 28, 35.6, 26.5, 14.8, 40.9, 21.1, 12.8, 11.2, 18, 29.3, 21.3, 24.4% and active: -4.87, 2.4, 0.892, 3.98, -27.2, -13.6, -0.803, -4.73, -2.81, 0.419, 1.71, -35.3, -26.7, -3.64, -4.12, -30.6, 3.06, 0.233, 8.07, 6.39%
- growth ([2]; runs of 2009): inactive: 23.6, 25.2 (3×), 30.4, 21 (2×), 12.2, 35.7 (2×), 34.8, 31.9 (2×), 32.5, 31, 33, 37.4, 22.9, 26.6 (2×), 19.6 (2×), 30.7, 33.1, 34.9, 32.9, 37.3 (2×), 25.8, 28.9, 43.5, 36.5, 37.7, 34.5, 62.3, 51.8, 17, 48.6, 42.1, 19.3, 48.4, 43, 41.3, 39.8, 25.6, 29.8, 20.2, 15.7, 27.5, 28.2, 12.1, 20.9, 15, 30.8, 42.6, 19.2, 30.9, 40.8, 22.7, 30.5 (2×), 33.4, 43.2, 40.2, 28.4% and active: 8.07%, 3.17%
- growth ([2]; runs of 2010): inactive: 27.6, 33.9, 17.4, 39.9 (2×), 32.5, 21.9, 34.3, 37.7, 14.4, 32.6, 23.1, 35.5, 27.2, 37.3, 42.4, 41.7, 27.9, 35.1, 44.4, 45.7, 27.5, 23.3, 24.2, 26.1, 26, 27.4, 35.3, 16.7, 19.7, 30.1, 36.5, 28.6, 34.6, 36.1, 33.3, 26.9, 49.1, 29.2, 31.1, 28.7, 41.3, 26.2, 50.2, 42, 33.6, 35.7, 48.4, 53.4, 41.6, 38.4, 33.4% and active: 2.87%, 1.38%
- growth ([2]; runs of 2011): inactive: 30 (2×), 39.1, 31.2, 35 (2×), 42.3, 19.6, 36.9, 33.1, 29.4 (2×), 14.2, 38, 36.1, 43.1, 38.9 (2×), 40.9, 45.1, 51.9, 44.4, 30.9, 40.2 (2×), 35.4, 47.2, 52, 41.2, 49.2, 39.9, 41.3, 28.6, 42.5, 38.8, 35.7, 29.3, 30.5, 35.2, 19.9, 23.7, 17.9, 25.6, 24, 33.8, 33.4, 30.4, 23.3, 25.2, 28.9, 31.9, 20.9, 25.9, 36.5%
- growth ([2]; runs of 2012): inactive: 28.1, 35.3, 28.6, 25.6, 35.5, 33.6, 40.1, 23.6, 18.9, 17.1, 20, 20.5, 30.7 (2×), 19.6, 22.5, 32.5, 30, 16.7, 11.3, 51.6, 36.4, 62, 58.8, 54.9, 50.1, 47.3, 48.6, 43.4, 39.7, 34.3, 50.6, 46.1, 37.4, 30.8, 36, 34.2, 45.6, 30.1, 51.5, 44.6, 47, 43.8, 55.1, 49.7, 48.7, 44, 49, 44.9, 47.8, 45.3, 49.3, 42.9, 53.7, 48.4, 42.6, 44.1, 29.8, 29.1, 27.8, 27.9, 38.6, 38.4, 31.9, 38.3, 39.4, 52.1, 42.8% and active: 6.4%, 7.77%
- growth ([2]; runs of 2013): inactive: 28.1, 32.9, 35.2, 29.2, 26, 47.9, 45.3, 49.5, 40.3, 50.1, 54.7, 42.5, 46.7, 49.9, 46.2, 48, 45.7, 36.5, 44.1, 49.1, 40.7, 40.8, 43.8 (2×), 41.6, 48.5, 45.4, 42.6, 34.8, 43.1, 37.2, 34.1, 33.7, 36, 29.1, 42.2, 37.7 (2×), 36.9, 38.6, 41.9, 38 (2×), 38.4, 38.7, 29.5, 32.4, 20.9, 26.6, 36.4, 30.9, 38.5, 24.6, 17, 31, 17.9, 38.8, 26.9, 12.8, 19.3, 17.5, 27.8, 23.9, 35.5% and active: -14.3, -1.39, 0.361, 1.61, -18.5, 6.08, -6.48, -3.96%
- growth ([2]; runs of 2014): inactive: 16.7, 29.2, 22.9, 32.1, 36.9, 16.3, 14.7, 21.8, 12.1, 20.2, 29.3, 30.3, 25, 27.9, 30.1, 33.4, 38, 33.7, 35.7, 31.2, 37.6, 13.3, 17.2, 15.3, 15.6, 17.1, 12.6, 11.4, 12.9, 14.1, 11.3, 11.1, 29.6, 24, 11.2, 14.4, 19.6, 14.8, 38.9, 15.4, 19.2, 16.1, 23.5, 35.9% and active: 6.07, 5.44, 6.76, 7.69, 5.29, 5.6, 7.37, 3.75, 3.44, 3.43, -6.44, -18.3, 9.05, 6.21, 8.55, 6.94, -26.1, 0.734, -33.7, -5.1, -6.35, 0.154, -0.0318, 5.99, 8.28, 4.33, -9.93, -6.3, -1.01, 8.38, 9.85, 1.03, -6.14%
